Consider 57 sequences from the supplement of paper PMC11417369.

± gives the standard deviation of the averaged measurements. The list shows a part of the results.

The test system of this test is PfAP2-EXP AP2 domain (GST-tagged). The test can be described thus: gcPBM binding intensity (ln(normalized median fluorescence intensity)); higher = stronger DNA binding. A digest of the protocol: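 Alexa488 anti-GST antibody, scanned at 488 nm, detected GST-tagged P. falciparum DNA-binding domains that had been expressed in E. coli and incubated for 1 h on an Agilent 4 × 180k array. The array carried primer-extended double-stranded 36-bp intergenic genomic probes and negative controls. Binding intensity is the highest Masliner-normalised natural-log median intensity across replicate spots of either orientation of each probe.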
On to “AATGTAAAGAACAAAACATGCAACTAGTTTACTTTT [TGCATGCA_site841]”, for which the “gcPBM binding intensity (ln)” value amounted to 8.73 ± 0.42.

For “TAATTCTTTATTTTTCGTACGTAAAACAAAAAATAT [XGTACX_site862]”, the “gcPBM binding intensity (ln)” value turned out to be 8.44 ± 0.38.

“TAGAAAAAAGATAGCACACACGGCCCAATATATATA [CACACA_site5354]”: the “gcPBM binding intensity (ln)” value was found to be 8.8 ± 0.23.

As to “TAAGTATATAAAATTACACACTATTTTTTTTCAAGT [CACACA_site1792]”, the “gcPBM binding intensity (ln)” value turned out to be 8.13 ± 0.39.

As to TCGAATATCTTATAGGTGCATCATAAATACATATGT, the “gcPBM binding intensity (ln)” value came to 8.69 ± 0.28.

Take “TTAATTTCGAATTATTGTACATTAATATATCTACAG [XGTACX_site3314]”: the “gcPBM binding intensity (ln)” value is 8.54 ± 0.44.

Regarding “AAAACAAATAGACACGCACACAAAAAAAAAAAAAAA [CACACA_site801]”, the “gcPBM binding intensity (ln)” value is 8.31 ± 0.51.

Regarding “ATATATATATATATATGTACATAAATATAAATTTAA [XGTACX_site8715]”, the “gcPBM binding intensity (ln)” value turned out to be 10.2 ± 0.24.

With “GAATAAAAAAAAAAAAAAATTTATTTTATAATAAAA [CACACA_negctrl_site1514]”, the “gcPBM binding intensity (ln)” value came to 7.95 ± 0.57.

As for “ATGCAATAATAATGGAGTACATATTAATATTGATCA [XGTACX_site2312]”, the “gcPBM binding intensity (ln)” value amounted to 8.86 ± 0.4.

For the sequence “CCTTTTGGATGAAAGTGTACAGGTGAGAAAAATTCC [XGTACX_site3358]”, the “gcPBM binding intensity (ln)” value turned out to be 8.75 ± 0.35.

As for “AAAAAATATATTAAGGCACACACATACATATATATA [CACACA_site9239]”, the “gcPBM binding intensity (ln)” value was found to be 8.79 ± 0.3.

Turning to “TTTGTTGGTATGGTTACACACATTTAGGAAATAAAA [CACACA_site1411]”, the “gcPBM binding intensity (ln)” value came to 8.36 ± 0.33.

In the case of “TCTTATAAATTAAATATAAAAAAAAAAAAAAAAAAA [XGTACX_negctrl_site77]”, the “gcPBM binding intensity (ln)” value was determined as 7.8 ± 0.4.

Regarding “AGTATTTTGTTTATCACACATATTGGAATTTTCAAT [CACACA_site4686]”, the “gcPBM binding intensity (ln)” value came out at 8.51 ± 0.21.

Take “AAAATTATACACACACGTACATATAAATAGAAATAT [XGTACX_site1753]”: the “gcPBM binding intensity (ln)” value amounted to 8.77 ± 0.5.

Take “AAAATAATTCAATGTAGTACAATACAAATTGAGAGA [XGTACX_site5991]”: the “gcPBM binding intensity (ln)” value was 8.56 ± 0.29.

“AAAAAAAAAAAAAATAAATAAATAAATAAATATATA [GTGCAC_negctrl_site382]”: the “gcPBM binding intensity (ln)” value was 8.14 ± 0.67.

As for “CCTTTTTATTTTTGTAGTACTACATATACATATCTG [XGTACX_site7791]”, the “gcPBM binding intensity (ln)” value stood at 8.96 ± 0.45.

In the case of “AAATGGACAGTATAAAAATGGAGAATATAAAAATTT [CACACA_negctrl_site889]”, the “gcPBM binding intensity (ln)” value was found to be 8.71 ± 0.43.

Take “GGTGTTTTTCACAGATGTACACAAATAAAAAAGAAA [XGTACX_site4454]”: the “gcPBM binding intensity (ln)” value worked out at 8.73 ± 0.46.

Turning to “TATATATAAAAAAAAAGTACATATAATATAATATTT [XGTACX_site7902]”, the “gcPBM binding intensity (ln)” value was 8.41 ± 0.28.

On to “TATTCAAAGAAAAACTGTACGTGTAGCAAACGTCAT [XGTACX_site7713]”, for which the “gcPBM binding intensity (ln)” value was found to be 8.71 ± 0.39.

Consider “ATATTAAAAAAATATAAACACACAAAAAAAAAATAT [CACACA_site8283]”, for which the “gcPBM binding intensity (ln)” value turned out to be 8.83 ± 0.47.

As to “GACCCCATATACATATGTACATACATAATATATATA [XGTACX_site1817]”, the “gcPBM binding intensity (ln)” value came out at 9.04 ± 0.5.

Turning to “TTTTTATAACAGCTTAGTACATATAAGAATTCTTGC [XGTACX_site5890]”, the “gcPBM binding intensity (ln)” value turned out to be 8.62 ± 0.5.

On to “AATGTACGCATATACACACACATAAATAGATACGTA [CACACA_site3406]”, for which the “gcPBM binding intensity (ln)” value was 8.6 ± 0.51.

As to “AATAGTTAAATACATACATGCATTCATATAATATAT [TGCATGCA_site433]”, the “gcPBM binding intensity (ln)” value turned out to be 8.63 ± 0.43.

For the sequence “TAATTAAGAATATATAGTACATAGTTGAAAAACTTT [XGTACX_site6359]”, the “gcPBM binding intensity (ln)” value turned out to be 8.41 ± 0.33.

In the case of “AAGATAAAAATATGCACACATATATATATATATATA [CACACA_site404]”, the “gcPBM binding intensity (ln)” value came to 10.1 ± 0.35.

Consider “AACGAAAACACTACGTGTACCAAACGTCCTACCAAC [XGTACX_site257]”, for which the “gcPBM binding intensity (ln)” value was 8.62 ± 0.49.

Take “TTCAAAAAATATATCTGTACAAATTATGTAGATGAA [XGTACX_site5522]”: the “gcPBM binding intensity (ln)” value was found to be 8.49 ± 0.37.

Turning to “TTTTTTTTTTTTTTTTTTTTACGATATATTTTAAAA [XGTACX_negctrl_site401]”, the “gcPBM binding intensity (ln)” value was determined as 8.03 ± 0.67.

In the case of “TTTTTACTTATTTATTATGTACAATTTCTTCTTTCT [CACACA_negctrl_site264]”, the “gcPBM binding intensity (ln)” value was 8.62 ± 0.42.

“TAGATCATAACAATTGCACACATTTGCATTTATATT [CACACA_site1562]”: the “gcPBM binding intensity (ln)” value stood at 8.54 ± 0.22.

On to “CATATGTTATATGTAGTGCATTACTATAGGATTTAT [GTGCAC_site9860]”, for which the “gcPBM binding intensity (ln)” value was found to be 8.82 ± 0.014.

With “TATTTTGCAAAATGTGCATGTTGTGTATTATGTGAC [TGCATGCA_site59]”, the “gcPBM binding intensity (ln)” value was found to be 9.2 ± 0.099.

As for “ATATATAATATTGGTGGTACAAGGGTATTTTATATT [XGTACX_site8215]”, the “gcPBM binding intensity (ln)” value stood at 8.61 ± 0.44.

In the case of “TATAATATACTATGTGGTACATATATATATTTATAG [XGTACX_site4556]”, the “gcPBM binding intensity (ln)” value came to 8.12 ± 0.26.

Turning to “ATTATAATATATATATGTACATATATATATAATACT [XGTACX_site5092]”, the “gcPBM binding intensity (ln)” value came to 8.49 ± 0.34.

On to “GTATAATTGGAAATTACACACCTTAGAATGTAACAT [CACACA_site4059]”, for which the “gcPBM binding intensity (ln)” value was 8.22 ± 0.35.

As for “TCATTTATTTTTCTTTGTACACAAAAGTTTTTATGT [XGTACX_site690]”, the “gcPBM binding intensity (ln)” value came out at 8.82 ± 0.33.

Take “TATTCTAAGATAAGTGGTACTTATATATAATATATA [XGTACX_site8316]”: the “gcPBM binding intensity (ln)” value came to 8.13 ± 0.4.

With TGGTATGCAATATTGGTGCGTATATATTTTAAAGGG, the “gcPBM binding intensity (ln)” value came out at 8.96 ± 0.23.

Consider “TATTTTTAATTTTTTAATGGTTTAATATTTTTATAT [CACACA_negctrl_site1186]”, for which the “gcPBM binding intensity (ln)” value worked out at 8.18 ± 0.39.

For the sequence “ATATATATATATATATGTACATAAACATATATATAT [XGTACX_site1064]”, the “gcPBM binding intensity (ln)” value amounted to 10.2 ± 0.21.

On to “TCTTTAGCTTCTTCTTTTTTTTTTTTTTTTTTTTTT [XGTACX_negctrl_site518]”, for which the “gcPBM binding intensity (ln)” value is 8.71 ± 0.24.

For the sequence “TAGATGTAAGTACATACACACATATATAAATAAATA [CACACA_site8528]”, the “gcPBM binding intensity (ln)” value was determined as 8.65 ± 0.34.

As for “AAAAAACAAATAAGTAAACACACATATATAATATAT [CACACA_site8830]”, the “gcPBM binding intensity (ln)” value is 8.82 ± 0.38.

For “CTAATTGTTATTTTGTGTACTTATCATTCGAAATAT [XGTACX_site7963]”, the “gcPBM binding intensity (ln)” value was found to be 8.81 ± 0.35.

As for “ATATATATTTTAATTACACACAAAAAAAAAAAAAAA [CACACA_site4778]”, the “gcPBM binding intensity (ln)” value is 8.23 ± 0.45.

On to “TTATATATTTTTAGGTGTACTTTTTTTTTTTTTTTT [XGTACX_site8164]”, for which the “gcPBM binding intensity (ln)” value stood at 8.38 ± 0.36.

As to “AAAATAATGAAATGAAAAAAAAAAATTTAGATTCTA [CACACA_negctrl_site1385]”, the “gcPBM binding intensity (ln)” value turned out to be 8.28 ± 0.51.

In the case of “AAAAAAAAAAAAAATACACACATATTTTATAGGGGA [CACACA_site3261]”, the “gcPBM binding intensity (ln)” value amounted to 8.32 ± 0.42.

As to “TATTTTTTGAAAAGTTCACACATCCAACTCGAGTTG [CACACA_site4412]”, the “gcPBM binding intensity (ln)” value was 8.62 ± 0.46.

As to “GTCATATATTTATGTACACACATATATATATTTATA [CACACA_site4911]”, the “gcPBM binding intensity (ln)” value amounted to 8.48 ± 0.3.

For the sequence “ATATATATTTTATATTGTACTTATTATTTTTAGGGC [XGTACX_site723]”, the “gcPBM binding intensity (ln)” value worked out at 8.42 ± 0.33.
